± gives the standard deviation. Only a part is listed here, and it is no random draw.
These sequences were tested on MIWI (PIWIL1) piRISC loaded with L1MC piRNA (30 nt) (assay: pre-steady-state target cleavage rate (min^-1); MIWI and MILI are mouse PIWI proteins and EfPiwi is from a freshwater sponge; tags in brackets are library labels; higher = faster piRNA-guided slicing of the target). Conditions: guide: L1MC piRNA 5'p-UAACUAAAUACUAUGCAAGCUGUAGGUCCU; auxiliary factor: 500 nM mouse GTSF1.
Outline: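 Using HEPES–potassium acetate buffer at 33 °C, 1 nM active affinity-purified piRISC with a single synthetic guide was mixed with 0.1 nM transcribed, DNA-blocked target RNA library for 0–8 or 0–960 min, with or without 500 nM GTSF1 partner protein. Uncleaved targets were sequenced and normalised to depth and to weakly complementary targets, and three trials were pooled with k3 capped at 0.0001 min^-1. A burst-and-steady-state fit gave the pre-steady-state cleavage rate.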

| Sequence | pre-steady-state target cleavage rate |
| --- | --- |
| UCCUGGAUGUGCUUGCAUAGUAUUUAAUUA | 0.114 ± 0.024 |
| UCCAGCUUCAGCUUGCAUAGUAUUUAGUUA | 0.898 ± 0.041 |
| UCCUGGAUGAGCUUGCAUCGUAUUUAGUUA | 0.218 ± 0.015 |
| AGGACGUACAGCUUGCAUAGUAUUUAGUAA | 0.964 ± 0.11 |
| UCCUGGUACAGCUUGCAAAGUAUUAAGUUA | 0.35 ± 0.049 |
| AGGACCUACAGCUAGCAUAGUAUUUUGUUA | 0.893 ± 0.073 |
| UCCUGGAUGAGCUUGGAUAGUAAUUAGUUA | 0.27 ± 0.034 |
| UCCUGGAUGAGCAUUGCAUAGUAUUUAGUUA | 0.497 ± 0.05 |
| UCCUGGAUGUGCUUGCAUAGAAUUUAGUAA | 0.0202 ± 0.0069 |
| UCCUGGUACAGCUUGCAUUGUAUUUUGUUA | 0.258 ± 0.049 |
| UCCUGGAACAGGUUGCAUACUAUUUAGUUA | 0.209 ± 0.024 |
| UCGACCUACGAGCUUGCAUAGUAUUUAGUUA | 0.737 ± 0.077 |
| UCCUCCUACAGCUUGCAUAGUAUUUAGUGUA | 0.322 ± 0.033 |
| UCCACCUACUGCUUGCUUAGUAUUUAGUUA | 0.816 ± 0.029 |
| AGGACCUACAGCAUGCAUUGUAUUUAGUUA | 0.835 ± 0.042 |
| UCCUGCUACAGGUUGCAUUGUAUUUAGUUA | 0.611 ± 0.073 |
| UCCUGGAUGAGCUUGGAUAGUAUAUAGUUA | 0.234 ± 0.04 |
| UGGACCUAGAGCUUGCAUAGUAUUUUGUUA | 0.663 ± 0.061 |
| AGGACCUAGAGCUUGCAUAGUAUUUAGUUA | 1.26 ± 0.07 |
| UCCUGGUACAGCUUGCAAAGUAUAUAGUUA | 0.396 ± 0.057 |

| Sequence | pre-steady-state target cleavage rate |
| --- | --- |
| UCCUGGUACUCCUUGCAUAGUAUUUAGUAA | 0.0947 ± 0.021 |
| UCCUCCUACAGCUUGGUUAGUAUUUAGUUA | 1.25 ± 0.047 |
| UGGACCUUCAGCUUGCAUUGUAUUUAGUUA | 0.904 ± 0.04 |
| UCCUGGUACAGCUUGCAUAGUAUUUAGCUUA | 0.235 ± 0.039 |
| UCCUGGAUGUCCUUGCAUAGCAUUUAGUUA | 0.0256 ± 0.0057 |
| UCCUGGUACAGCUUGCUUAGUAAUUAGUUA | 0.276 ± 0.05 |
| UCCUGGAUGUCCUUGCAUAGUAUUCAGUUA | 0.0187 ± 0.0062 |
| UCCAGCUACAGCUUGCAAAGUAUUUAGUUA | 0.493 ± 0.036 |
| UCCUGCUUCAGCUUGCAUAGUAUUUAGAUA | 0.377 ± 0.035 |
| UCCUGGUACUGCUUGCAUAGUAUUUAGAAA | 0.0634 ± 0.018 |
| UCCUGGAUCAGCUUGCAUAGUUUUUAGUAA | 0.163 ± 0.019 |
| UCCUGGUACAGCUUGGAUAGUAUUUAGAUA | 0.165 ± 0.04 |
| AGGACCUACAGCUUGCAUAGUAUUUAUUUA | 0.432 ± 0.033 |
| UCCUGGAUGUGCUUGCAUAGUAUUUAGUGA | 0.294 ± 0.018 |
| UCCUGGUAGUGCUUGCAUAGUAUUUAGUUA | 0.622 ± 0.038 |
| AGGACCUACAGCUAGCAUUGUAUUUAGUUA | 0.678 ± 0.037 |
| UCGACCUACUGGUUGCAUAGUAUUUAGUUA | 1.11 ± 0.035 |
| UCGACCUACACCUUGCAUACUAUUUAGUUA | 0.284 ± 0.026 |
| AGGACCUUCAGCUUGCAUAGUAUUUUGUUA | 1.06 ± 0.064 |
| UCCUCCAACAGCUUGCAUAGUAAUUAGUUA | 0.761 ± 0.034 |

Source: the supplement of paper PMC10338343
